The supplement of paper PMC3334620
Whole data set: some 33,000 sequences, median “E-score (-0.5 to 0.5)” near -0.021, cut for the highest 2% near 0.32. The list shows a part of the results.

Biological target: T1, Zap1 (UniProt P47043)
T1 sequence: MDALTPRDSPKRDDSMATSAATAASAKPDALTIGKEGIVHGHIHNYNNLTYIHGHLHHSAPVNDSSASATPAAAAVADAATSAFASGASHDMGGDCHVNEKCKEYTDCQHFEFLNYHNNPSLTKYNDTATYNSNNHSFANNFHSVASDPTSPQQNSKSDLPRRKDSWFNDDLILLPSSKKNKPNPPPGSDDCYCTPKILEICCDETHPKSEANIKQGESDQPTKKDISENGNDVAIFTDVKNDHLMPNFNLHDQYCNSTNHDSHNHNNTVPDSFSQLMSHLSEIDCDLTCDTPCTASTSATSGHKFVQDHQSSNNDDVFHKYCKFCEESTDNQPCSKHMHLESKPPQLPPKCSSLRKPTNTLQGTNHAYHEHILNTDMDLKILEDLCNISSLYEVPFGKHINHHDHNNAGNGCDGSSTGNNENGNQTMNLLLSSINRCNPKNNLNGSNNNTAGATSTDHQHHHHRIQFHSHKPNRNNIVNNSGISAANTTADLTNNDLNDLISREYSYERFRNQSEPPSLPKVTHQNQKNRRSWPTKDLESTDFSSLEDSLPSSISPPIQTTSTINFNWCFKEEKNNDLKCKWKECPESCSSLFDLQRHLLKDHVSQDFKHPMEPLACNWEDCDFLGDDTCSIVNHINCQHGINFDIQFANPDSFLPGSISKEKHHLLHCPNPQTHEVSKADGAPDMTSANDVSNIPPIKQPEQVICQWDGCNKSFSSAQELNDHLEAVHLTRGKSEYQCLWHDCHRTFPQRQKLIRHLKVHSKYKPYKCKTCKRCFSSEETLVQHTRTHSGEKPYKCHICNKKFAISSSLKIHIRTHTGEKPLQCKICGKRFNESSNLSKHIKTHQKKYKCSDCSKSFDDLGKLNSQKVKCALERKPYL
Experiment: PBM E-score (8-mer binding enrichment) (E-score (-0.5 to 0.5)); higher = stronger / more preferred TF binding; most listed sequences are background and not binding sites
Settings: protein concentration: 200 nM; construct: GST-full length
In short: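 Masliner-normalised scans of fluorescent anti-GST signal were the basis for scoring. That signal came from GST-tagged yeast transcription factors applied at about 100-200 nM to double-stranded universal all-10-mer Agilent arrays on fresh or once-stripped slides. Each ungapped eight-base word, pooled with its reverse complement, received an E-score from the Universal PBM Analysis Suite.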

Sequence	PBM E-score
ATTCCAAC	0.0852
GCCCGGCC	-0.163
GGCGGATA	-0.153
AAACATTC	-0.164
AGCCGGAA	0.0285
AGATTAGG	-0.103
GCCAACCA	-0.0675
CGTGCGTA	-0.12
ACGTAGCA	-0.0271
CGCCTTCC	-0.11
AAGGTTAA	0.415
CGACGACC	0.0298
AGGAGGCC	-0.155
CTCGGGTC	0.203
GAATATAA	0.0263
CGGTAATA	0.219
ATAGCTTC	-0.213
GATACTAC	0.0357
AACTATTG	0.136
AAGCCATT	-0.001
TTACGAAA	0.234
AGTAACCC	0.443
CCCAAAGC	-0.0932
CCTCTCCG	-0.186
AGTGACAA	0.183

Sequence	PBM E-score
AGTAGGCA	-0.159
ACGACTCG	-0.134
TCACGACA	-0.163
AGATGAGG	-0.123
GAAACCTC	0.189
AGGAGTGC	-0.29
CAGGTAAC	0.254
CGTATCTA	-0.0738
ACAGAAAC	0.185
CGATATCG	0.15
CCCTCAAC	-0.111
AGCTCTCG	-0.212
ATCTGACA	-0.133
CCATGTAG	-0.0501
AATGCCCT	-0.108
AAGAAAGA	-0.032
GGTGCCGA	0.172
CTAGAAAC	0.197
TGATCGCA	-0.0837
ACGGTCGG	-0.0383
GATCGGGA	-0.364
CTAAATAG	0.107
AGTCAATG	-0.0253
AGGGGAAG	-0.123
CCTGTGTC	-0.0773

Sequence	PBM E-score
CGTAGTAC	-0.0537
CCGCTCAA	-0.0222
AGACACTG	-0.11
GCCTCCGA	-0.184
ATCAGCGC	-0.0947
CTGCATCA	-0.0217
AAAGGGGT	0.32
CCTACTTC	-0.12
ATATACAC	0.0421
AACAACGG	-0.024
CAAGACTC	-0.0977
CATCGCGA	0.164
CCGGTCAA	0.019
CGGCACCC	0.126
ATAAGGCG	-0.121
CGGTCAAA	0.207
GGAGGAAC	-0.219
AGCTCAAA	0.116
CGACGTGA	-0.121
ATCTCAAG	0.143
AGGCTTGA	-0.11
CAGGTGGC	0.0105
ATAGTTGC	0.135
ACCAGCCG	0.108
ACTTGAAT	0.006

Sequence	PBM E-score
CGACCTCC	0.0537
CGTAGTCA	-0.126
TACAGAAA	0.123
CCAGTTCA	-0.108
GAGGATAC	-0.196
CCTCAGTA	-0.198
AATCATTA	-0.0155
GACAACTC	-0.0129
ACCCCCTC	-0.0959
CCATGGTC	0.208
ATGCAGAG	-0.113
ATGGCGAA	-0.0663
GGCTGAGA	-0.101
AAAAACAA	0.111
CGTCCTCA	-0.162
GTACCGAA	0.174
GGGATCGA	-0.0434
ACGAATTC	0.0141
CGCACCAA	-0.119
ACCGTACC	0.0466
CAGCCCCC	-0.304
CTGGGAGA	-0.111
AGCTGGGG	-0.0647
CCCCCGGC	-0.231
ATATGGAG	-0.0641

Sequence	PBM E-score
GATCCCGA	-0.0745
GTCCATCA	-0.00532
AGGTCCCG	-0.0103
GTAAGGCA	-0.208
CACGGCTG	-0.212
ACAAGTGG	-0.0149
CGATGAAC	0.0575
CCTCGCGA	0.0889
AGGCGGTC	-0.0549
ACATGCAA	-0.179
ATCCGTAC	0.0269
CTTAAACC	0.17
GACAATCA	-0.0629
CGAGTAAG	0.119
CACGTGGC	-0.172
CCTGTTTA	0.00701
GGCCCACA	0.0191
GGACCACC	0.142
CTTCAAAC	0.213
AGCTAGTA	0.029
GCGATGAA	-0.0319
AGTATTTA	0.0344
AGCTAGCT	-0.0684
GAGGAGGC	-0.29
AACACGGT	-0.00377

Sequence	PBM E-score
ATGGTAGA	-0.00844
CTGAAACA	0.0192
AACAAATT	0.262
CGATGTAG	-0.241
CTTTCTTC	-0.0581
CTAACGGA	0.109
GGAACATA	0.0158
AGAAATAC	-0.0369
AGGATACG	-0.1
AGCATGGG	-0.00439
GAATGAGA	-0.305
AATGTGCA	-0.0139
AAGTTTCC	-0.0473
TTGCGAAA	0.179
GGAGTGCA	-0.216
AAGCAAGC	-0.122
GTAAATAC	-0.094
AGTGAGCG	-0.112
GAAAAGTA	0.159
AGAGCTAG	-0.158
GTAGTCAC	2e-05
CTAGAGGA	-0.0737
CGCTACTC	-0.181
ACTTCGAT	-0.00491
AAGGGGTG	0.167

Sequence	PBM E-score
GCCTGCAA	-0.213
AGTGTAGC	-0.0965
GATCTGCC	-0.36
AAAGAATC	-0.144
CCGTTCCC	-0.151
GAGCAGCA	-0.119
ACAGCAAT	0.0582
ATACGATC	0.0949
GCGTAGCA	-0.151
TAACCCTA	0.462
ACCGCCGT	-0.0171
TAGTTTAA	0.242
AGTGGCCA	0.264
CATGCATG	-0.197
AACTCATT	-0.108
CTAAGTAG	0.146
AGAATACC	0.172
AGTACCGG	-0.02
GACCGGGC	-0.177
CGAGACTC	-0.0833
GAGGTCGC	0.175
AATTACCA	0.272
GCCCATAA	0.203
CGCTTACA	-0.0238
GAGACTGA	-0.184

Sequence	PBM E-score
CTAACCTA	0.327
GAATCGAC	-0.191
CTGTAGCC	-0.0519
ATTATGTC	-0.202
GGGCAGGA	-0.164
AAGCTTCC	-0.256
GCTCACCA	-0.134
TGTAGCAA	0.0751
CTTGGGCA	-0.055
GCTCCCCA	-0.219
CAACATGG	0.058
ATGGCACG	-0.305
ACCCTGCA	0.394
ATAGATTC	-0.0013
ATCGGCGA	-0.0893
AACGATTA	-0.0818
ATACGTAT	0.143
GGGACGTA	-0.186
AAAAGTGT	-0.0724
ATTTTACG	0.166
CGAATGAG	-0.106
ACTGACAT	0.0656
GGCTAAAA	0.131
CCTCTAAC	0.0622
AGACGAGA	-0.193

Sequence	PBM E-score
ATAGATCC	0.0139
GCCATGTA	-0.0366
TAATAACA	0.104
ACGATCCA	0.0153
AGACAAAG	-0.103
CAGTAATC	-0.19
AACTTTAT	0.0578
CCACTCCG	-0.145
AAGGTTGG	0.281
GATTGAGA	0.109
GTATTGGA	-0.131
AAGCTACG	-0.207
CTTAGTCA	-0.129
AACGATAC	0.14
GCCGAAAC	-0.0197
GCATCGCA	-0.193
AATTAGAT	0.228
GATAGTCC	-0.115
GCAATGCC	-0.104
CCACGTAA	-0.086
ACCGGATC	-0.112
GGACAAGA	-0.152
ATATTCAA	0.0621
CCTAAGAA	0.162
GTCCCCCA	-0.185

Sequence	PBM E-score
CTACACAC	0.0068
CCCGTAGC	-0.177
AATAAGCG	-0.0136
AATTCACA	0.157
GACGGGGC	-0.158
CAACGTTA	0.176
GTATTCCA	0.00902
CGAAGTGC	-0.11
CCTAGGCG	-0.181
TTACTAAA	0.267
ATAATGGA	0.042
AATAAAAC	0.228
GGCAAGTA	-0.0375
GTCAGAAA	0.109
ACACAACC	0.291
CATGATTC	-0.0842
CGTGCAGC	-0.252
ATTACTAA	0.175
GGGGGCCA	-0.17
ACCCATTC	0.131
ATACTATG	0.0167
ACATGCTG	-0.135
CATTTGGA	0.072
AGAGTTCA	-0.195
CTAAGTTC	-0.0514

Sequence	PBM E-score
AGGGCTGG	-0.114
AACATATA	0.0133
CGGGGGGA	-0.309
GACCCGTC	-0.104
GGAGATCC	-0.0331
AATGTCTA	0.00891
TTGCAAAA	0.179
CACCGACC	-0.0271
CAAGCAAG	-0.107
AATGTTAA	-0.132
ACTGCGAT	0.00465
AGACCGCA	0.0823
AGCTCCAA	-0.0738
CCTGGCAA	-0.0449
GGCCTCGA	0.00761
ATTACCGC	0.217
GTCACTAA	0.234
ATCAACCC	0.265
GCTTCCCC	-0.372
AGGCGCGA	-0.143
TCAAGGGA	0.127
CATTTCCG	0.0753
ACCCCACA	0.3
TAGTCTCA	0.0559
AAGGGTGC	0.134

Sequence	PBM E-score
CAAAAAGA	0.00752
CGTTAGGC	-0.00344
CTACGACA	-0.0729
CCCGCCAG	-0.098
ACCCAGAG	0.279
CTCGGAGC	-0.0875
AACCTACT	0.135
CAGTCCCG	-0.172
CGTGTCAA	-0.0811
GCGATTAA	0.078
AACTATAT	0.162
AGTAGCTG	-0.159
CGTGCTAG	-0.268
GAGGCGTA	-0.162
ATCATCTG	-0.0293
AAGATTTC	0.0883
ACCATTTG	0.221
TCAGACCA	0.0492
GAACTAAA	0.164
AGCTTGAA	-0.179
CCTTATGA	0.181
CCTTTCAG	0.0739
CAAGTTAC	0.0439
GGAGCGCA	-0.242
GTTTGGAA	0.116

Sequence	PBM E-score
CGCTTCCA	-0.202
ATTTTACC	0.216
CGCGACAC	-0.0113
GGACAGAC	-0.0786
ATAGGCGG	-0.108
CGAGGAAG	-0.213
GAAGGATC	-0.167
ACCACGTA	-0.0822
AGTGCGTA	-0.174
ACTTCTCA	-0.0742
GACAGTGC	-0.167
CGTGAGCA	-0.131
CAATACCG	0.0236
CCTTAACG	0.174
AAATGCGG	0.134
CACCACCA	0.0335
ACAATGTG	-0.0256
GTTTGAAA	0.206
CGCTTACC	-0.132
GCCACATA	-0.00652
ACATGCGT	-0.0743
CGACGGAC	-0.124
GATGTGTA	-0.181
CCATTGGA	-0.0581
CTTTGCGC	-0.0424

Sequence	PBM E-score
CATTTCGC	-0.0829
ATCAAGCG	0.0309
AAAATGAA	0.0187
GCGCATTA	0.0752
AGATCTTA	-0.0333
CTTGCGCA	-0.00034
GTTACTCA	0.199
CCGACGGC	-0.0795
CGTGATGC	-0.0217
CGGGATGC	-0.275
AGACGTGA	0.00521
CGTCATGC	-0.194
ATCAATGG	-0.0197
AACTGAGC	-0.219
CCGATAGG	0.189
GTTTGTGA	0.111
AGACATGG	-0.153
ACTGCCAA	-0.0488
AGTTGATC	-0.0428
